Measured values as given in PubChem BioAssay AID1460 (National Center for Advancing Translational Sciences (NCATS), 2008).
About 5,800 (2.1%) of roughly 270,000 compounds were called active. Not shown: some 16% with an inconclusive outcome. Calls come from the whole dose curve; as a rule, active = well fitted inhibition curve with a large enough effect; inconclusive = small, poorly fitted or top-dose-only effect; inactive = flat fitted curve, though single readings scatter. Only a part is listed here, and it is no random draw. The source holds several records for some structures; these can differ, active in one and inactive in another.

What follows are compounds tested against Microtubule-associated protein tau (Homo sapiens) (UniProt P10636) (assay: qHTS for Inhibitors of Tau Fibril Formation, Thioflavin T Binding). Details: recombinant tau K18 P301L (four-repeat tau fragment), heparin-induced fibrillization, ThT fluorescence; series mostly up to 57.4 µM; activity, negative = inhibition: at the top concentration.
Summary of the method: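 Recombinant human tau K18 fragment […] carrying P301L, 15 uM unlabeled plus 0.24 uM Alexa 594-labeled, was fibrillized with 20 uM heparin in 100 mM sodium acetate pH 7 for 6 hr at 37 C; 30 uM ThT fluorescence read after 1 hr.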
% is set by controls: 0 for no effect and ±100 for the full control effect; potency is the fitted concentration of half-maximal effect.
Note: nearly all actives have a fitted effect of over 55% in size.

UniProt P10636, sequence (P10636 whole entry, looked up, the tested form may be a part): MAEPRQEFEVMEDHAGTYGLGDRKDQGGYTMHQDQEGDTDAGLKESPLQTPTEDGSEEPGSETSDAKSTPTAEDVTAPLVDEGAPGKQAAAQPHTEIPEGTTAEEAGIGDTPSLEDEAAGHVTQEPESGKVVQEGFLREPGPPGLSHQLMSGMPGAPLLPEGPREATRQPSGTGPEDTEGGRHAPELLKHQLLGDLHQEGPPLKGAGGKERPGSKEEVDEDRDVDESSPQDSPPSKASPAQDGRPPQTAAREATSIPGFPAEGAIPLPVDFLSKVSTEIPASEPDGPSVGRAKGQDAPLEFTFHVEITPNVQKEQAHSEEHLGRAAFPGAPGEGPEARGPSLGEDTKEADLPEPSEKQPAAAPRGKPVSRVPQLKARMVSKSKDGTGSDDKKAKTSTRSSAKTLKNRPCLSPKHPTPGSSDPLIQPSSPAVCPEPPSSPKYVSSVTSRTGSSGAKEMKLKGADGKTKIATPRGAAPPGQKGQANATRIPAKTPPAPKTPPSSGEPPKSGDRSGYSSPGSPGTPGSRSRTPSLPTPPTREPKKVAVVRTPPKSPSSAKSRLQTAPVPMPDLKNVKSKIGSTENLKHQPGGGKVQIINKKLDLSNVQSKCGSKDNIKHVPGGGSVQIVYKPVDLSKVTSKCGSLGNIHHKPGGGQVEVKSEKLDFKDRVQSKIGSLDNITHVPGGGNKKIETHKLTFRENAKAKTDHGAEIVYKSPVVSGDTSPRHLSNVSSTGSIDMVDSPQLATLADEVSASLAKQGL

SMILES | activity, negative = inhibition | Potency
COc1ccc(CCN2CCC(Nc3nc4ccccc4n3Cc3ccc(F)cc3)CC2)cc1 | inactive: -20.4% | –
COc1ccc(/C=C/C(=O)c2ccc(OC)cc2O)cc1 | – | active: 5.01 µM
CC(=O)N1CCN(c2ccc(NCc3ccc(F)cc3)cc2)CC1 | – | active: 25.1 µM
COC(=O)C1=C(C(=O)OC)[C@@H]2N(C)c3ccc(OC)cc3[C@@]23C[C@@H](C(=O)OC)N(S(=O)(=O)c2ccc([N+](=O)[O-])cc2)C3=N1 | inactive: 4.42% | –
C/C(CCC1CC(C)OC1=O)=N/Nc1nc(-c2ccccc2)cs1 (stereo not given) | – | active: 28.2 µM
C=CCNC(=S)N1CCN(c2ccc([N+](=O)[O-])cc2)CC1 | – | active: 12.6 µM
COc1ccc(/C=C2\CCC/C(=C\C=N\N(C)C)C2=O)cc1 | – | active: 2.51 µM
C=C1CC[C@H](O)C/C1=C/C=C1\CCC[C@]2(C)[C@@H]([C@H](C)CCCC(C)(C)O)CC[C@@H]12 | inactive: -10.1% | –
CCn1c(SCC(=O)N/N=C/C=C/c2ccccc2[N+](=O)[O-])nnc1-c1ccccc1 | inactive: 0.802% | –
CC(C)N1CCc2c(sc(NC(=O)c3cc4cc([N+](=O)[O-])ccc4s3)c2C(N)=O)C1 | – | active: 3.98 µM
COc1cccc(-c2nc(NC(C)C)c3ccccc3n2)c1O | – | active: 17.8 µM
CCCCNC(=O)C(c1ccc(OCC(=O)OC)c(C(=O)OC)c1)N(CCOC)C(=O)CCCCCN1C(=O)NC(c2ccc(-c3ccccc3)cc2)C(C(=O)OCc2ccccc2)=C1C (stereo not given) | inactive: -7.12% | –
CCC(C)C(=O)O[C@H]1C[C@@H](C)C=C2C=C[C@H](C)[C@H](CC[C@@H]3C[C@@H](O)CC(=O)O3)C21 (stereo not given in full) | inactive: -7.23% | –
COC(=O)[C@@]1(Cc2ccc(F)cc2)[C@H]2c3cc(C(=O)N(C)C)n(Cc4ccccc4)c3C[C@H]2CN1C(=O)c1ccccc1 | inactive: -11% | –
CC1(C)C(O)CC[C@]2(C)C1CC[C@@]1(C)C2C(=O)C=C2[C@@H]3C[C@@](C)(C(=O)O)CC[C@@]3(C)CCC21C (stereo not given in full) | inactive: -8.37% | –
CS(=O)(=O)c1ccc(C(=O)NCCN2C(=O)S/C(=C\c3cccnc3)C2=O)cc1[N+](=O)[O-] | – | active: 15.8 µM
NC(=O)[C@@H]1[C@@H]2C(=O)N(c3ccc(F)cc3)C(=O)[C@@H]2[C@H]2C=Cc3ccccc3N21 | – | active: 14.1 µM
COC(=O)CCC(=O)OC1(C)C(=O)C2=CN(CC(C)C)C(c3ccc(OC)cc3)=CC2=C(Br)C1=O (stereo not given) | inactive: -5.88% [at 11.5 µM] | –
COC(=O)C1=C(C)N(CCc2cc(OC)c(OC)c(OC)c2)C(=O)N[C@H]1c1ccc(Br)cc1 | inactive: -3.53% | –
N/N=C(/Cc1nc2ccccc2[nH]1)c1ccc([N+](=O)[O-])cc1 | – | active: 5.01 µM
